# Measurements: patent US20110059013A1, “ANTI-ROBO4 ANTIBODIES AND USES THEREFOR” (Genentech, Inc., priority 2007, published 2011)
# T1: human Robo4 (Homo sapiens, UniProt Q8WZ75)
# T1 construct: made in house; host or cells: CHO cells (transient transfection, vector pRK5)
# T1 sequence (Q8WZ75 with tags, fused parts or gaps): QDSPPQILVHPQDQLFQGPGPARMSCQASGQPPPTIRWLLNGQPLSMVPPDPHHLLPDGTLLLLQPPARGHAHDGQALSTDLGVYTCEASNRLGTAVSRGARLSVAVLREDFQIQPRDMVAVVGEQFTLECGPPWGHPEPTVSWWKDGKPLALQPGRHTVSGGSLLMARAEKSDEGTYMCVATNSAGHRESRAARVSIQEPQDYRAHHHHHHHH
# T2: Murine Robo4 (Mus musculus, UniProt Q8C310)
# T2 construct: Murine Robo4 (M1 to H232) was cloned into pRK5 as fusion to a C-terminal Histidine tag only; made in house; host or cells: CHO cells (transient transfection, vector pRK5)
# T2 sequence (Q8C310 28-232): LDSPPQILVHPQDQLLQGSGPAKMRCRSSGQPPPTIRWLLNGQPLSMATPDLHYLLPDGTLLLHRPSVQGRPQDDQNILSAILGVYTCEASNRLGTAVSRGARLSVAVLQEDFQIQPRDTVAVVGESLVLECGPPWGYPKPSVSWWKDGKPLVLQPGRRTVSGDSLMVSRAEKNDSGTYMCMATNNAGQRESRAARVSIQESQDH
# T3: human Robo4 expressed endogenously in HUVEC cells (Homo sapiens, UniProt Q8WZ75)
# T3 construct: endogenous in cells; host or cells: HUVEC
# T3 sequence (Q8WZ75 28-1007): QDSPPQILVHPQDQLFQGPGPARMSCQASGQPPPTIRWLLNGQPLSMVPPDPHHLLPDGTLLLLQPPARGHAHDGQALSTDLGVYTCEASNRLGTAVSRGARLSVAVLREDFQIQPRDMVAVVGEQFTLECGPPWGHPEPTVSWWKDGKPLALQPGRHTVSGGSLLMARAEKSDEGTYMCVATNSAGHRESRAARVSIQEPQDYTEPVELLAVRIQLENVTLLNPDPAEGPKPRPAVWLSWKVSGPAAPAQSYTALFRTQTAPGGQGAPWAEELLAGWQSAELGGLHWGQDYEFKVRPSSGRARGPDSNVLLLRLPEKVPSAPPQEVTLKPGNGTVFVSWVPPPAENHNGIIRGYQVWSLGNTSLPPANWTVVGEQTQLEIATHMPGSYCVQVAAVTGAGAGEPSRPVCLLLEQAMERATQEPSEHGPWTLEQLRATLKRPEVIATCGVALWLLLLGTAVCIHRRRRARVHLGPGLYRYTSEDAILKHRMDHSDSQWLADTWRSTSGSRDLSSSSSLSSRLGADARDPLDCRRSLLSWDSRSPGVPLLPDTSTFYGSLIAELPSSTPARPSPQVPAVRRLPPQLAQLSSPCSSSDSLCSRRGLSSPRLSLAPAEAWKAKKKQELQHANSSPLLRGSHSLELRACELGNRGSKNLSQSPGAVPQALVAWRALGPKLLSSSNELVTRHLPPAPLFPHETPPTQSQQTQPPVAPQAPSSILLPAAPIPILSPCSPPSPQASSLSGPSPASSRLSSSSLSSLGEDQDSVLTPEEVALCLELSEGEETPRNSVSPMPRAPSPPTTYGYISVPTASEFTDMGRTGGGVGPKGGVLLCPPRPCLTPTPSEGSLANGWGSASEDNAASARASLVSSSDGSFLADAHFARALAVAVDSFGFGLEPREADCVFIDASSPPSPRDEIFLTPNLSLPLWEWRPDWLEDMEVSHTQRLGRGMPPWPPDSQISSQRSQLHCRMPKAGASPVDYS
# T4: murine Robo4 expressed endogenously in MS1 cells (Mus musculus, UniProt Q8C310)
# T4 construct: endogenous in cells; host or cells: MS1 mouse microvascular endothelial cells
# T4 sequence (Q8C310 28-1012): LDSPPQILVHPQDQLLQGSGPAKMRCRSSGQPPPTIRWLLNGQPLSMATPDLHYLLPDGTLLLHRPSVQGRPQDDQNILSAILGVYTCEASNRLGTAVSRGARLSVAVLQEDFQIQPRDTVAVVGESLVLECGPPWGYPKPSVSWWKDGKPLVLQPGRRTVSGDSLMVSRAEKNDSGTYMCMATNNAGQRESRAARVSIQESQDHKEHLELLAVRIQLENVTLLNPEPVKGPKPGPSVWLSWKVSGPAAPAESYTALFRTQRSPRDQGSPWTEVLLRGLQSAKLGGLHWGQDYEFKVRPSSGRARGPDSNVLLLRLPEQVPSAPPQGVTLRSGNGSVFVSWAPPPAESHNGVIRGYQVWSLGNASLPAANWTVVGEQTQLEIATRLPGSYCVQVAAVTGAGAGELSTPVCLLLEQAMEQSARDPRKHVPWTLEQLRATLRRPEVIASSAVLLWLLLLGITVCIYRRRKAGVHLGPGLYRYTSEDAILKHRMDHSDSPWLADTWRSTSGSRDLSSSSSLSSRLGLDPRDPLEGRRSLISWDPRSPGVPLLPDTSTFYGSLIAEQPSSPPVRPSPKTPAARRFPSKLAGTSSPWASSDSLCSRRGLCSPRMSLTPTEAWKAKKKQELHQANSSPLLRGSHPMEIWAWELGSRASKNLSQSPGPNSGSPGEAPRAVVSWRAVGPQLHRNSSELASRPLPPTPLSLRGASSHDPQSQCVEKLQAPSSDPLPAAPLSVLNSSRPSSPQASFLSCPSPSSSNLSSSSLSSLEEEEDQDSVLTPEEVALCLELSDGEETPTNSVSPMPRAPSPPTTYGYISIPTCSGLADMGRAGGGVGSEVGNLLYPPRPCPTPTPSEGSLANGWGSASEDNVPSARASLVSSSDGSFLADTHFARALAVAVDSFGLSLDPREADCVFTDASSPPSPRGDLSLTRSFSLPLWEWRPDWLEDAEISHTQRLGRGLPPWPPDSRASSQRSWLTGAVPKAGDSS
# Tests used:
# [1] = biological target: T1, human Robo4; assay: BIAcore surface plasmon resonance binding analysis, human Robo4; settings: Human Robo4, immobilized Fab, 25° C.
# Description: (§1) Affinity determinations were performed by surface plasmon resonance using a BIAcore™ 2000 system (BIAcore, Piscataway, N.J.). Robo4-His was immobilized (˜1000 response units (RU)) on a CM5 chip and varied concentrations of Fab (4 to 500 nM) in PBST were injected. After each injection the chip was regenerated using 100 mM HCl.
# (§2) The binding affinity of three phage-derived anti-Robo4 antibodies for soluble Robo4 extracellular domain (ECD) was determined by surface plasmon resonance measurement using a BIACORE® 3000 system (Biacore, Inc., Piscataway, N.J.). […] Briefly, carboxymethylated dextran biosensor chips (CM5, Biacore Inc.) were activated with N-ethyl-N′-(3-dimethylaminopropyl)-carbodiimide hydrochloride (EDC) and N-hydroxysuccinimide (NHS) according to the supplier's instructions. These activated chips were coated with anti-Robo Fab by dilution to 5 ug/ml with 10 mM sodium acetate, pH 4.8, before injection at a flow rate of 5 μl/minute to achieve approximately 500 response units (RU) of coupled antibody. Next, 1M ethanolamine was injected to block unreacted groups. For kinetics measurements, two-fold serial dilutions of human or mouse-ECD-His tagged soluble antigen (approximately 500 nM to approximately 7.8 nM) were injected in PBS with 0.05% Tween® 20 at 25° C. at a flow rate of 25 μl/min. Binding response was corrected by subtracting the RU from a blank flow cell. Association rates (kon) and dissociation rates (koff) were calculated using a simple one-to-one Langmuir binding model (BIAevaluation Software version 3.2). The equilibrium dissociation constant (KD) was calculated as the ratio kdissociation/kassociation.
# [2] = biological target: T2, Murine Robo4; assay: BIAcore surface plasmon resonance binding analysis, murine Robo4
# Description: as §1, §2
# [3] = biological target: T3, human Robo4 expressed endogenously in HUVEC cells; assay: FACS binding to HUVEC cells; assay type: cell-based
# [4] = biological target: T4, murine Robo4 expressed endogenously in MS1 cells; assay: FACS binding to MS1 cells; assay type: cell-based
# [5] = system: HUVEC; assay: Bead outgrowth assay, HUVEC tube elongation; assay type: cell-based, human; settings: 50 μg/ml antibody, versus control antibody E25
# Description: For the bead outgrowth assay, dextran-coated Cytodex 3 microcarrier beads (Amersham) were incubated with HUVECs (400 cells per bead) in EGM-2, overnight at 37° C. and 5% CO2. To induce clotting, 0.5 ml cell-coated beads in PBS with 2.5 μg/ml fibrinogen (200 beads/ml) was added into one well of a 24-well tissue culture plate containing 0.625 units thrombin and incubated for 5 min at room temperature and then for 20 min at 37° C. The clot was equilibrated in EGM-2 for 30 min at 37° C. The medium was then replaced with EGM-2 containing skin fibroblast cells (Detroit 551, 20,000 cells/ml). Antibodies (50 μg/ml) were added to each well, and the assay was monitored for 8 days with change in medium every alternate day. Images of the beads were captured by an inverted microscope, and concentric circles spaced at 100, 200, and 300 μm were drawn around the bead in each image. The number of vessels crossing each circle was counted 10-12 beads were used per condition for quantification (Nakatsu et al., Microvascular Research 66: 102-112 (2003)).
# [6] = system: human non-small cell lung carcinoma SK-MES-1; assay: In vivo tumor growth, SK-MES-1 xenograft; design: species or system mouse; settings: naked antibody, 10 mg/kg i.p. twice weekly for 5 weeks, nude mice
# Description: (§3) For this study, each HRLN female nude mouse received a 1 mm^3 tumor fragment s.c. implant in the flank. Tumor growth was monitored twice weekly by caliper measurements. When tumors reached an average size of 80-120 mm^3, mice were sorted to give nearly identical group mean tumor sizes, and treatment was started (Day 1). Animals were dosed twice weekly i.p. with 10 mg/kg anti-Robo4 and/or 5 mg/kg anti-VEGF or control antibody for 5 weeks. All treatments were body weight-adjusted at 0.2 mg/20 g.
# [7] = system: MDA-MB-231 breast cancer xenograft; assay: In vivo tumor growth, MDA-MB-231 breast cancer xenograft; settings: naked antibody, Fo5 mouse model with MDA-MB-231 xenograft
# Description: as §3
# [8] = system: HUVEC; assay: HUVEC cellular migration assay; assay type: cell-based, human; settings: HUVECs pre-incubated with VEGF, 16 hours
# Description: Robo4-Fc and Robo4-His were contacted with vascular ECs using a HUVEC migration assay and in the presence or absence of VEGF.
# Endothelial cell migration was not blocked by anti-Robo4 antibody in an in vitro assay using human umbilical vascular endothelial cells (HUVEC) cellular migration assay. HUVECs endogenously express human Robo4. The assay was performed as follows. HUVECs were pre-incubated for 2 hours with VEGF.
# [9] = Murine Robo4, immobilized Fab, 25° C.
molecule,measurement,setting,value
"YW71.22: phage-derived anti-Robo4 antibody, heavy chain SEQ ID NO:169, light chain SEQ ID NO:170 (antibody, antibody heavy chain; antibody light chain) heavy: EVQLVESGGGLVQPGGSLRLSCAASGFTINGYYIHWVRQAPGKGLEWVGFIYPAGGDTDYADSVKGRFTISADTSKNTAYLQMNSLRAEDTAVYYCARLIGNKFGWSSYGMDYWGQGTLVTVSS[not shown - human IgG1 constant region] light: DIQMTQSPSSLSASVGDRVTITCRASQDVSTAVAWYQQKPGKAPKLLIYSASFLYSGVPSRFSGSGSGTDFTLTISSLQPEDFATTYCQQSYTTPPTFGQGTKVEIKRTVAAPSVFIFPPSDEQLKSGTASVVCLLNNFYPREAKVQWKVDNALQSGNSQESVTEQDSKDSTYSLSSTLTLSKADYEKHKVYACEVTHQGLSSPVTKSFNRGEC",Kd,[1],13 nM
same,ka,[1],2.90E+05
same,kd,[1],3.70E−03
same,cross-reactivity with human and mouse Robo4,[2]; BIAcore,cross-reacts with human and mouse Robo4
same,Kd,[2]; [9],6.2 nM
same,ka,[2]; [9],4.50E+05
same,kd,[2]; [9],2.80E−03
same,binding to human Robo4 on HUVEC cells (FACS),[3],cross-reacts with human and murine Robo4
same,binding to murine Robo4 on MS1 cells (FACS),[4],cross-reacts with human and murine Robo4
same,HUVEC tube elongation,[5]; 8 days,significantly inhibits HUVEC tube elongation
same,reduction of number of tubes with a length of 300 μm or more,[5],60%
same,tumor growth inhibition,[6],not inhibited
same,reduction of tumor growth,[7],no reduction of tumor growth
same,blocking of endothelial cell migration,[8],not blocked
